Source: publication PMC4336329 (PLoS ONE, 2015)
About 14,000 (4.5%) of roughly 310,000 compounds showed an effect of 50% or more. The effect is printed as a negative number. Some of the results follow.

target: human ether-à-go-go-related gene (hERG) potassium channel (human, UniProt Q12809); test: primary screen, population patch clamp on CHO cells stably expressing hERG
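Also: peak tail current of the secondary pulse compared with the same well before compound.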

Sequence of human ether-à-go-go-related gene (hERG) potassium channel (Q12809 whole entry, looked up): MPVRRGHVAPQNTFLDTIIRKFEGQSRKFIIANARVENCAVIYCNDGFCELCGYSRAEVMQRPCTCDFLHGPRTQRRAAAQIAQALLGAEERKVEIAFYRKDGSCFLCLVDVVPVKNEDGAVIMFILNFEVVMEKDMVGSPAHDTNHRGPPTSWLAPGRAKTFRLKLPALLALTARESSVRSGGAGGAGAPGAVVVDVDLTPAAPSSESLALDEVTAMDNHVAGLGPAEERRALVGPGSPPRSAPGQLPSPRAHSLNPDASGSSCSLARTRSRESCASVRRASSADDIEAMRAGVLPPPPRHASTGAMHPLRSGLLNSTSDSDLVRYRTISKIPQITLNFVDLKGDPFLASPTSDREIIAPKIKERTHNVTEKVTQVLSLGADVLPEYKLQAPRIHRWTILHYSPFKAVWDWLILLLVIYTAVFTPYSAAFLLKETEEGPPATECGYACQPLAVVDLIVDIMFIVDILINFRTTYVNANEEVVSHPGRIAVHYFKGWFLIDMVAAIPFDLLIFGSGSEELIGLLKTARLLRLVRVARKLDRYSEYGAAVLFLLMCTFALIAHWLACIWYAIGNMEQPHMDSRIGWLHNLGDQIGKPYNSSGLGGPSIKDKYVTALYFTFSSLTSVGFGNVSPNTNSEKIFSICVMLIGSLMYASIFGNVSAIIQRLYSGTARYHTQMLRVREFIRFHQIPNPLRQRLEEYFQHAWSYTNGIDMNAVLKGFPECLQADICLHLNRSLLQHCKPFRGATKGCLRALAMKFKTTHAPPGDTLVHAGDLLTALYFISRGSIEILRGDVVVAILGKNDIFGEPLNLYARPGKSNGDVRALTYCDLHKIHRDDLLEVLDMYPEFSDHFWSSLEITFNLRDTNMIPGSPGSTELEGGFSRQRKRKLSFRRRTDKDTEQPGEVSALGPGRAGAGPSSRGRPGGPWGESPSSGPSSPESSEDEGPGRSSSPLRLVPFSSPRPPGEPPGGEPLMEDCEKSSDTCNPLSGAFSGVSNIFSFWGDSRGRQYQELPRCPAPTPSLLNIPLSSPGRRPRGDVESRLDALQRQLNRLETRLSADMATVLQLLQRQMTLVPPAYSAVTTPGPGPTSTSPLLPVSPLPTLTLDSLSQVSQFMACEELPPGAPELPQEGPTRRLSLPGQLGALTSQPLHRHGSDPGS

| Structure (SMILES) | hERG current change (%, negative = inhibition) at 10uM [%] |
| --- | --- |
| CCc1cccc2c(C#N)cn(CC(=O)N3CCOCC3)c12 | 10.9 |
| Cc1cccc(NC(=S)Nc2ccccn2)c1 | 8.07 |
| CN(CC(=O)Nc1ccccc1Br)CC(=O)Nc1ccccc1C(F)(F)F | -5.45 |
| Cc1ccc(NC(=O)COc2coc(CN3CCc4ccccc43)cc2=O)c(C)c1 | -11.9 |
| O=C(NCCCN1CCCCCC1)c1cc2c(=O)oc3ccccc3c2s1 | -60.5 |
| CCN(CC)S(=O)(=O)c1cccc(-c2nnc(SCC(=O)NC3CCCC3)n2N)c1 | 19 |
| CC1C(=O)N2CCCc3cc(NC(=O)C4CC4)cc1c32 (stereo not drawn) | 5.63 |
| CSc1nc2c(c(=O)[nH]1)C(c1cccc(Br)c1)CC(=O)N2 (stereo not drawn) | 18.8 |
| Cc1cccc(NC(=S)NCCO)c1C | 19 |
| Cc1cc(C)cc(N(C(C)C(=O)Nc2c(C)n(C)n(-c3ccccc3)c2=O)S(C)(=O)=O)c1 (stereo not drawn) | 8.48 |
| Cl.O=C(COc1ccc(Cl)cc1)NCCN1CCCC1 | -40 |
| O=C(NCC1CCCO1)c1cc2c(s1)CCCC2 (stereo not drawn) | 19.6 |
| CN(C)C(=S)NCc1ccccc1 | 13.9 |
| CC(=O)Nc1ccc(NC(=O)CSc2nnnn2C2CCCCC2)cc1 | -8.79 |
| O=C(NCCc1c[nH]c2ccccc12)/C(=C\c1cccs1)NC(=O)c1ccccc1 | -33.4 |
| NC(=O)c1nc(-c2cccs2)nc2c1[nH]c(=O)n2-c1ccc(F)cc1 | 12.6 |
| O=C(O)C1CC=CCC1C(=O)N1CC=C(c2ccccc2)CC1 (stereo not drawn) | -9.56 |
| CCc1cccc(C)c1NC(=O)CCN1C(=O)NC(C)(C)C1=O | 8.82 |
| Cc1ccc(N2CC(C(=O)Nc3nnc(SCCN4CCOCC4)s3)CC2=O)cc1 (stereo not drawn) | 3.31 |
| Clc1cccc(CON/C=N/c2ncnc3sccc23)c1 | -19.9 |
| COc1ccc(Cl)cc1N1C(=O)C2CCCN2C1c1ccccc1F (stereo not drawn) | -0.486 |
| COc1cccc(C(=O)OCC(=O)Nc2cc(C)c(C)cc2[N+](=O)[O-])c1 | 11.9 |
| O=C(CCCN=C1NS(=O)(=O)c2ccccc21)OCc1cc([N+](=O)[O-])cc2c1OCOC2 | -14.7 |

| Structure (SMILES) | hERG current change (%, negative = inhibition) at 10uM [%] |
| --- | --- |
| Cc1ccc(C2CC(c3ccccc3)=NN2C(=S)Nc2ccccc2)o1 (stereo not drawn) | 7.14 |
| CCC(Sc1nncn1C)C(=O)Nc1ccccc1OC (stereo not drawn) | -1.77 |
| Cc1ccc(S(=O)(=O)NNC(=O)CCC(=O)Nc2ccccc2)cc1 | 8.95 |
| Cl.Clc1ccc(CN2C3=NCCN3c3ccccc32)cc1 | -69.5 |
| COC(=O)c1ccccc1NC(=O)C(C)c1ccc([N+](=O)[O-])cc1 (stereo not drawn) | 22.2 |
| Cc1ccc(C)c(S(=O)(=O)N2CCN(c3ncccn3)CC2)c1 | 21.5 |
| Cc1ccc2[nH]c3c(NCc4ccco4)ncnc3c2c1 | -14.1 |
| Cc1ccc(OCCN2C(=O)CSC2=O)cc1 | -0.132 |
| CC(C)=CCN1CCN(Cc2cccc3nccnc23)CC1CCO (stereo not drawn) | -8.42 |
| CCn1nc(C(=O)OCC(=O)c2c[nH]c3ccccc23)c2ccccc2c1=O | -19.4 |
| COc1ccccc1N1C(=O)S/C(=C\c2cccs2)C1=O | 16.7 |
| CN(C)c1ccc(/C=N/NC2=NS(=O)(=O)c3ccccc32)cc1 | 21.4 |
| C=CCn1c(SCC(=O)Nc2cccc(S(N)(=O)=O)c2)nnc1C1CCCCC1 | 0.944 |
| Cc1ccc(S(=O)(=O)N2CCN(C(=O)c3ccco3)CC2)cc1 | 1.15 |
| Cc1cc(C)c(C(=O)COC(=O)CCn2c(C)csc2=O)cc1C | -18.3 |
| Cc1ccc(C(=O)N/C(=C/c2ccco2)C(=O)NCC2CCCO2)cc1 (stereo not drawn) | -10.3 |
| Cl.c1ccc(CCn2nnnc2C(c2cccs2)N2CCN(Cc3ccc4c(c3)OCO4)CC2)cc1 (stereo not drawn) | -24.1 |
| CCN(CC)CCNC(=O)c1ccc(NC(=O)C2CC(=O)N(c3ccc4c(c3)OCCO4)C2)cc1 (stereo not drawn) | 5.35 |
| CCN(Cc1ccccc1)Cc1c(F)cccc1F | -0.224 |
| COc1cccc(CC(NC(C)=O)C(=O)NC2CCN(c3c4c(nc5ncnn35)CCC4)CC2)c1OC (stereo not drawn) | 7.94 |
| Cc1ccn(Cc2n[nH]c(=S)n2Cc2ccccc2)n1 | -0.149 |
| CC(C)CN1CCN(Cc2cccc3ncccc23)CC1CCO (stereo not drawn) | -2.49 |
